Experimental data: PubChem BioAssay AID1508642 (National Center for Advancing Translational Sciences (NCATS), 2021)
Among all 43,000 compounds or so, about 200 (0.47%) were called active. Not shown: some 12% with an inconclusive outcome. Calls follow the shape of the dose curve; as a rule, active = well fitted cell-killing curve with a large enough effect; inconclusive = small, poorly fitted or top-dose-only effect, or effect the other way; inactive = flat fitted curve, though single readings scatter. The list shows a part of the results.

Experiment: Cell viability qHTS assay in S16 Pmp22-F2sN cells; also: nearly all actives have a fitted effect of over 65% in size
Conditions: S16 Pmp22-F2sN Schwann cells (luciferase reporters placed in the Pmp22 gene) viability, CellTiter-Glo, 24 h; series mostly up to 57.5 µM; activity change, negative = cytotoxicity: at the top concentration
Method in brief: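 CellTiter-Glo counter-screen, qHTS, 1536-well. Cells: S16(c9) Pmp22-F2sN, 500-1,000/well in DMEM + 10% FBS. Cpd 23 nL pin transfer, 24 h, 37C/5% CO2. Read: luminescence, CCD imager.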
% is scaled to controls: 0 for no effect and ±100 for the full control effect.

SMILES	activity change, negative = cytotoxicity
CC(C)NC(=O)Cn1ccc2cc(S(=O)(=O)N3CCCCCC3)ccc21	inactive: -3.24%
CC(C)OCCCn1c(SCC(N)=O)nc2c(sc3ccccc32)c1=O	inactive: 16.1%
Cc1nn(CCC(=O)NCc2cccc(Br)c2)c(=O)c2nn(-c3ccccc3)c(C)c12	inactive: -11.4%
O=C(NCCCCc1ccccc1)c1nn(-c2ccccc2F)nc1CO	inactive: -7.17%
CCn1c(=O)c2sccc2n2c(CCC(=O)N3CCN(c4ccccc4OC)CC3)nnc12	inactive: 16.9%
COc1ccc(-c2nnc(SCC(=O)Nc3ccccc3C)o2)cc1OC	inactive: 9.92%
O=C(c1cccs1)c1cn(CCOc2ccc(F)cc2)c2ccccc12	inactive: 6.1%
CCOC(=O)c1c(C)[nH]c(C)c1S(=O)(=O)NCC(=O)Nc1ccc(CC)cc1	inactive: -15.1%
CCc1ccccc1NC(=O)c1cc2sc(Cl)cc2n1CC	inactive: -2.23%
COc1ccc2c(c1)CCc1c(C(=O)Nc3c(C)nn(Cc4c(Cl)cccc4Cl)c3C)noc1-2	inactive: -8.65%
CCOC(=O)c1noc2ncn(CC(=O)Nc3cc(Cl)ccc3OC)c(=O)c12	inactive: 0.688%
O=C(O)Cc1sc(Nc2ccc(C(=O)O)cc2)nc1-c1ccccc1	inactive: 9.14%
O=C(Cn1cnc2onc(-c3ccc(F)cc3)c2c1=O)N1CCN(c2ccccc2F)CC1	inactive: 8.24%
COc1ccc(CNC(=O)C2CCN(S(=O)(=O)c3c(C)noc3/C=C/c3cccs3)CC2)cc1	inactive: 4.65%
Cc1ccccc1NC(=O)CCOc1ccccc1	inactive: 4.08%
COc1cc2ccccc2cc1C(=O)Nc1cccc(-c2nc3ccccc3o2)c1	inactive: -6.94%
COc1ccc(N2CCN(C(=O)c3cn(C)c4ccc(S(=O)(=O)N(C)C5CCCCC5)cc4c3=O)CC2)cc1	inactive: -0.268%
Cn1cc(-c2cc3n(n2)CCC(=O)N3CCCC(=O)Nc2ccccc2Cl)c2ccccc21	inactive: 1.36%
COc1cc(-c2nc3ccc(Cl)cn3c2Nc2ccc3c(c2)OCO3)ccc1O	inactive: -26.3%
Cc1ccc(NC(=O)c2cc(CN3CCOCC3)on2)cc1Cl	inactive: 3.79%
Nc1nn(-c2ccccc2)nc1C(=O)OCc1ccccc1Br	inactive: 2.41%

SMILES	activity change, negative = cytotoxicity
Cc1cccc(N2CCN(C(=O)CN3C(=O)COc4ccc(S(=O)(=O)N5CCCC5)cc43)CC2)c1C	inactive: 21.2%
N#C/C(=C\c1c(Oc2ccc(F)cc2)nc2ccccn2c1=O)c1nc2ccccc2s1	inactive: -5.4%
Cc1oc(-c2cccc(Br)c2)nc1CSc1nc2ncccc2[nH]1	inactive: 1.7%
CCCOc1ccc(C(=O)Nc2sc3c(c2C(=O)OCC)CCCCC3)cc1	inactive: 1.43%
O=C1CC(c2ccc(F)cc2)c2c(n3c(nc4ccccc43)[nH]c2=O)N1 (configuration not stated)	inactive: 5.68%
CCc1ccc(CNC(=O)C2CCN(C(=O)c3ccc(-n4ccc5ccccc54)s3)CC2)cc1	inactive: 2.04%
CCOc1ccc(N(C(=O)c2ccc(OC)cc2)S(=O)(=O)c2ccc3c(c2)n(C)c(=O)n3C)cc1	inactive: -11.3%
O=C(NCc1cccnc1)C1CCN(Cc2cc3ccccc3n2Cc2ccccc2)CC1	inactive: -22.2%
CCOC(=O)c1cc(OC(=O)c2cccc(F)c2)n(-c2ccccc2)n1	inactive: 3.12%
CC(=O)N1CCCc2ccc(NC(=O)c3ccc(C(F)(F)F)cc3)cc21	inactive: 1.41%
Cc1ccccc1-c1noc(-c2ccc(N3CCCC3)c([N+](=O)[O-])c2)n1	inactive: 19.4%
Cc1cc(C)cc(NC(=O)CSc2nnc(CNC(=O)c3c(F)cccc3Cl)o2)c1	inactive: -1.2%
CCN(CC)S(=O)(=O)c1ccc2c(c1)N(CC(=O)Nc1c(C)cc(C)cc1C)C(=O)CS2	inactive: 5.15%
COC(=O)c1cc2oc(C)cc2n1Cc1ccc(C)cc1	inactive: 9.1%
CC(C)c1ccc(NC(=O)CN2C=NS(=O)(=O)c3ccccc32)cc1	inactive: 2%
COc1ccc(-c2nnc(SCC(=O)c3ccc([N+](=O)[O-])cc3)o2)cc1OC	inactive: -0.712%
COc1ccc2c(c1)Cc1sc(NC(=O)c3ccc(Cl)cc3)nc1-2	inactive: -5.59%
Cc1cccn2c(=O)c3cc(C(=O)NC(C)c4ccccc4)c(=N)n(CCOCCO)c3nc12 (configuration not stated)	inactive: 5.26%
O=C(NCc1ccccc1Cl)C(=O)NCC(c1cccs1)S(=O)(=O)c1ccccc1 (configuration not stated)	inactive: -10.6%
N#C/C(=C\c1ccc(-c2ccc(Cl)c(C(=O)O)c2)o1)c1nc2ccccc2[nH]1	inactive: 3.13%
CC(C)C(=O)c1cc2c(cc1NC(=O)c1ccccc1F)OCCO2	inactive: -4.2%

SMILES	activity change, negative = cytotoxicity
Cc1ccc(COc2cccc3cc(-c4noc(-c5ccc(C)cc5)n4)c(=O)oc23)cc1	inactive: -1.18%
Cc1ccc(C(=O)c2oc3ccccc3c2NC(=O)COc2ccc(C(C)(C)C)cc2)cc1	inactive: 21.9%
Cc1ccc(NC(=O)Cn2cnc3c(oc4ccccc43)c2=O)cc1	inactive: -2.45%
COC(=O)c1ccc(NC(=O)CSc2nc3c(c(=O)n(C)c(=O)n3C)n2Cc2ccccc2)cc1	inactive: 2.99%
COc1ccc(C(=O)NCc2nnc(SCC(=O)Nc3ccc(F)cc3)n2-c2ccccc2)cc1	inactive: 16.1%
COc1ccc(Cl)cc1NC(=O)c1c(NCc2cccs2)sc2c1CCCC2	inactive: -3.07%
Cc1cccc(-n2ncc(C(=O)Nc3ccc4c(c3)OCO4)c2C2CCN(C(=O)OC(C)(C)C)CC2)c1	inactive: -13.8%
Cc1ccc(S(=O)(=O)Nc2c(C)nc3nc(C)[nH]n3c2=O)c(C)c1	inactive: -6.78%
COc1ccccc1Cc1nc2ccccc2nc1SCC(=O)N1CCCc2ccccc21	inactive: 3.09%
Cc1ccccc1-c1noc(-c2cc(C(C)C)[nH]n2)n1	inactive: -25.1%
CC(=O)N1CCc2cc(S(=O)(=O)CCC(=O)N3CCN(c4ccccc4F)CC3)ccc21	inactive: 3.71%
Cc1oc2ncn(CC(C)C)c(=O)c2c1C(=O)N(Cc1ccccc1)C(C)C	inactive: 12.5%
Cc1nc2nc(C(F)(F)F)[nH]n2c(=O)c1Cc1ccccc1	inactive: -15.5%
CC1Cn2cc(C(=O)Nc3ccccc3C(F)(F)F)c(=O)c3c(Cl)ccc(c32)O1 (configuration not stated)	inactive: 8.28%
CC(C)Oc1ccc(C(=O)Nc2nc3c(s2)CC(C(C)(C)C)CC3)cc1 (configuration not stated)	inactive: -3.1%
O=C(NCC(c1ccc2c(c1)OCO2)N1CCN(c2ccccc2)CC1)c1ccccc1 (configuration not stated)	inactive: -0.801%
O=C(CN1C(=O)C2(SCC(=O)N2c2ccc(Cl)cc2)c2ccccc21)NCCc1ccccc1 (configuration not stated)	inactive: -2.97%
Cc1ccc(O)c(NC(=O)CCSc2nc(-c3ccco3)cc(C(F)(F)F)n2)c1	inactive: -1%
COc1ccc(Cl)cc1NS(=O)(=O)c1c(C)[nH]c(=O)[nH]c1=O	inactive: 5.6%
CCOc1ccccc1NC(=O)c1c(NC(=O)c2ccncc2)sc2c1CCC(C(C)(C)C)C2 (configuration not stated)	inactive: 12.2%
